Test results from the supplement of paper PMC9588766.
Structures can show the parent of a compound that is named as a salt. In all, about 1,900 compounds were measured (“cell viability of compound + 1 nM pemigatinib relative to pemigatinib-only (DMSO) wells”: median about 0.95, lowest 2% from about 0.22 on). The list shows a part of the results.

Test system: PDC-DUC18828
Test: cell viability of compound + 1 nM pemigatinib relative to pemigatinib-only (DMSO) wells (fraction); PDC-DUC18828 is a patient-derived cholangiocarcinoma cell line; higher = less growth inhibition
Details: first compound 1 µM; pemigatinib concentration 1 nM; 72 h
Experimental: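 Selleck Bioactive library screen in the patient-derived FGFR2 fusion-positive ICC cell line PDC-DUC18828 (500 cells/well). Each compound was tested at 1 uM with 1 nM pemigatinib, in triplicate, for 72 h. Viability was read by CellTiter-Glo and normalised to plate DMSO controls. Value is the paper's averaged normalised viability.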

SMILES | cell viability
CNC(=O)c1ccc(N2C(=S)N(c3cnc(C#N)c(C(F)(F)F)c3)C(=O)C23CCC3)cc1F + CCN1C(=O)N(c2c(F)c(OC)cc(OC)c2F)Cc2cnc3[nH]c(CN4CCOCC4)cc3c21 [pemigatinib] | 0.92
O=C(c1ccc(OCCN2CCCCC2)cc1)c1c(-c2ccc(O)cc2)sc2cc(O)ccc12 [Raloxifene HCl] + CCN1C(=O)N(c2c(F)c(OC)cc(OC)c2F)Cc2cnc3[nH]c(CN4CCOCC4)cc3c21 [pemigatinib] | 0.888
COC1(c2sc3c(N4CCOCC4)nc(-c4cnc(N)nc4)nc3c2C)COC1 + CCN1C(=O)N(c2c(F)c(OC)cc(OC)c2F)Cc2cnc3[nH]c(CN4CCOCC4)cc3c21 [pemigatinib] | 0.225
CCOC(=O)C1=C(C)NC(C)=C(C(=O)OC)C1c1cccc([N+](=O)[O-])c1 (centres undefined) [Nitrendipine] + CCN1C(=O)N(c2c(F)c(OC)cc(OC)c2F)Cc2cnc3[nH]c(CN4CCOCC4)cc3c21 [pemigatinib] | 0.903
COc1ccc(-c2coc3cc(O)cc(O)c3c2=O)cc1 [Biochanin A] + CCN1C(=O)N(c2c(F)c(OC)cc(OC)c2F)Cc2cnc3[nH]c(CN4CCOCC4)cc3c21 [pemigatinib] | 0.95
O=S(=O)(NCCNC/C=C/c1ccc(Br)cc1)c1cccc2cnccc12 + CCN1C(=O)N(c2c(F)c(OC)cc(OC)c2F)Cc2cnc3[nH]c(CN4CCOCC4)cc3c21 [pemigatinib] | 1.02
NS(=O)(=O)NCCNc1nonc1/C(=N/O)Nc1ccc(F)c(Br)c1 + CCN1C(=O)N(c2c(F)c(OC)cc(OC)c2F)Cc2cnc3[nH]c(CN4CCOCC4)cc3c21 [pemigatinib] | 0.979
O[C@@H](COc1cccc2ncccc12)CN1CCN(C2c3ccccc3[C@@H]3[C@H](c4ccccc42)C3(F)F)CC1 (some centres undefined) + CCN1C(=O)N(c2c(F)c(OC)cc(OC)c2F)Cc2cnc3[nH]c(CN4CCOCC4)cc3c21 [pemigatinib] | 1
COC1=CC(=O)C[C@@H](C)[C@]12Oc1c(Cl)c(OC)cc(OC)c1C2=O [Griseofulvin] + CCN1C(=O)N(c2c(F)c(OC)cc(OC)c2F)Cc2cnc3[nH]c(CN4CCOCC4)cc3c21 [pemigatinib] | 0.953
CCC(=O)NCC[C@@H]1CCc2ccc3c(c21)CCO3 [Ramelteon] + CCN1C(=O)N(c2c(F)c(OC)cc(OC)c2F)Cc2cnc3[nH]c(CN4CCOCC4)cc3c21 [pemigatinib] | 0.991
CC(C)(C)c1cc(/C=C(\C#N)C(N)=S)cc(C(C)(C)C)c1O [Tyrphostin AG 879] + CCN1C(=O)N(c2c(F)c(OC)cc(OC)c2F)Cc2cnc3[nH]c(CN4CCOCC4)cc3c21 [pemigatinib] | 0.667
CN(C)CCC(c1ccc(Cl)cc1)c1ccccn1 (centres undefined) [Chlorpheniramine Maleate] + CCN1C(=O)N(c2c(F)c(OC)cc(OC)c2F)Cc2cnc3[nH]c(CN4CCOCC4)cc3c21 [pemigatinib] | 0.981
OCC(O)CN1CCN(c2ccccc2)CC1 (centres undefined) [Dropropizine] + CCN1C(=O)N(c2c(F)c(OC)cc(OC)c2F)Cc2cnc3[nH]c(CN4CCOCC4)cc3c21 [pemigatinib] | 1.04
COc1ccccc1N1CCN(CCN2C(=O)CC3(CCCC3)CC2=O)CC1 + CCN1C(=O)N(c2c(F)c(OC)cc(OC)c2F)Cc2cnc3[nH]c(CN4CCOCC4)cc3c21 [pemigatinib] | 0.986
CCCC(CCC)C(=O)O [Valproic acid sodium salt (Sodium valproate)] + CCN1C(=O)N(c2c(F)c(OC)cc(OC)c2F)Cc2cnc3[nH]c(CN4CCOCC4)cc3c21 [pemigatinib] | 1.05
CCCC(CCC)C(=O)O [Divalproex Sodium] + CCN1C(=O)N(c2c(F)c(OC)cc(OC)c2F)Cc2cnc3[nH]c(CN4CCOCC4)cc3c21 [pemigatinib] | 0.996
CN(C)[C@@H](CCOc1cccc2ccccc12)c1ccccc1 [Dapoxetine HCl] + CCN1C(=O)N(c2c(F)c(OC)cc(OC)c2F)Cc2cnc3[nH]c(CN4CCOCC4)cc3c21 [pemigatinib] | 0.973
CC[C@H](Nc1ncnc2[nH]cnc12)c1nc2cccc(F)c2c(=O)n1-c1ccccc1 [CAL-101 (Idelalisib, GS-1101)] + CCN1C(=O)N(c2c(F)c(OC)cc(OC)c2F)Cc2cnc3[nH]c(CN4CCOCC4)cc3c21 [pemigatinib] | 0.936
O=CN1CC/C(=C/c2ccc3c(c2)OCO3)C1=O + CCN1C(=O)N(c2c(F)c(OC)cc(OC)c2F)Cc2cnc3[nH]c(CN4CCOCC4)cc3c21 [pemigatinib] | 0.873
CC(C)c1noc(N2CCC(COc3ccc(-c4ccc(S(C)(=O)=O)cc4)nc3)CC2)n1 + CCN1C(=O)N(c2c(F)c(OC)cc(OC)c2F)Cc2cnc3[nH]c(CN4CCOCC4)cc3c21 [pemigatinib] | 1.03

SMILES | cell viability
O=C(NC1CCNCC1)c1n[nH]cc1NC(=O)c1c(Cl)cccc1Cl + CCN1C(=O)N(c2c(F)c(OC)cc(OC)c2F)Cc2cnc3[nH]c(CN4CCOCC4)cc3c21 [pemigatinib] | 0.435
O=C1CCc2c(ccc3ccccc23)O1 [Splitomicin] + CCN1C(=O)N(c2c(F)c(OC)cc(OC)c2F)Cc2cnc3[nH]c(CN4CCOCC4)cc3c21 [pemigatinib] | 0.922
CC[C@@H]1C(=O)N(C)c2cnc(Nc3ccc(C(=O)NC4CCN(C)CC4)cc3OC)nc2N1C1CCCC1 + CCN1C(=O)N(c2c(F)c(OC)cc(OC)c2F)Cc2cnc3[nH]c(CN4CCOCC4)cc3c21 [pemigatinib] | 0.321
Cc1c(OCC(F)(F)F)ccnc1C[S+]([O-])c1nc2ccccc2[nH]1 (centres undefined) [Lansoprazole] + CCN1C(=O)N(c2c(F)c(OC)cc(OC)c2F)Cc2cnc3[nH]c(CN4CCOCC4)cc3c21 [pemigatinib] | 0.969
CCS(=O)(=O)N1CCC([C@@H](C)n2c(C)c(C(=O)NCc3c(OC)cc(C)[nH]c3=O)c3ccccc32)CC1 + CCN1C(=O)N(c2c(F)c(OC)cc(OC)c2F)Cc2cnc3[nH]c(CN4CCOCC4)cc3c21 [pemigatinib] | 0.905
Fc1ccc(CNc2ncnc3ccc(F)cc23)cc1 [Spautin-1] + CCN1C(=O)N(c2c(F)c(OC)cc(OC)c2F)Cc2cnc3[nH]c(CN4CCOCC4)cc3c21 [pemigatinib] | 0.843
O=S(=O)(N=Cc1c(O)ccc2ccccc12)c1cccs1 + CCN1C(=O)N(c2c(F)c(OC)cc(OC)c2F)Cc2cnc3[nH]c(CN4CCOCC4)cc3c21 [pemigatinib] | 0.955
NC1=N[C@@]2(c3cc(NC(=O)c4ccc(F)cn4)ccc3F)COC[C@H]2CS1 + CCN1C(=O)N(c2c(F)c(OC)cc(OC)c2F)Cc2cnc3[nH]c(CN4CCOCC4)cc3c21 [pemigatinib] | 1.03
COc1ccc2cc1Oc1ccc(cc1)C[C@H]1c3c(cc4c(c3Oc3cc5c(cc3OC)CCN(C)[C@@H]5C2)OCO4)CCN1C [Cepharanthine] + CCN1C(=O)N(c2c(F)c(OC)cc(OC)c2F)Cc2cnc3[nH]c(CN4CCOCC4)cc3c21 [pemigatinib] | 0.955
O[C@@H]1CO[C@H]2[C@@H]1OC[C@@H]2O [Isosorbide] + CCN1C(=O)N(c2c(F)c(OC)cc(OC)c2F)Cc2cnc3[nH]c(CN4CCOCC4)cc3c21 [pemigatinib] | 1.02
O=c1cc(CN2CCOCC2)occ1OCCCCCSc1ccnc2cc(C(F)(F)F)ccc12 + CCN1C(=O)N(c2c(F)c(OC)cc(OC)c2F)Cc2cnc3[nH]c(CN4CCOCC4)cc3c21 [pemigatinib] | 0.911
CN(C)CCN1C(=O)c2cccc3cc(N)cc(c23)C1=O [Amonafide] + CCN1C(=O)N(c2c(F)c(OC)cc(OC)c2F)Cc2cnc3[nH]c(CN4CCOCC4)cc3c21 [pemigatinib] | 0.97
CCOc1ccc(Cc2cc([C@@H]3O[C@H](CO)[C@@H](O)[C@H](O)[C@H]3O)ccc2Cl)cc1 [Dapagliflozin] + CCN1C(=O)N(c2c(F)c(OC)cc(OC)c2F)Cc2cnc3[nH]c(CN4CCOCC4)cc3c21 [pemigatinib] | 1.02
CN(C)CCC(c1ccccc1)c1ccccn1 (centres undefined) [Pheniramine Maleate] + CCN1C(=O)N(c2c(F)c(OC)cc(OC)c2F)Cc2cnc3[nH]c(CN4CCOCC4)cc3c21 [pemigatinib] | 0.949
CC(C)NCCCn1c(Sc2cc3c(cc2I)OCO3)nc2c(N)ncnc21 + CCN1C(=O)N(c2c(F)c(OC)cc(OC)c2F)Cc2cnc3[nH]c(CN4CCOCC4)cc3c21 [pemigatinib] | 0.489
Nc1ccn([C@@H]2O[C@H](CO)[C@@H](O)[C@H]2O)c(=O)n1 [Cytidine] + CCN1C(=O)N(c2c(F)c(OC)cc(OC)c2F)Cc2cnc3[nH]c(CN4CCOCC4)cc3c21 [pemigatinib] | 0.989
Cc1c(O)cccc1C(=O)N[C@@H](CSc1ccccc1)[C@H](O)CN1C[C@H]2CCCC[C@H]2C[C@H]1C(=O)NC(C)(C)C [Nelfinavir Mesylate] + CCN1C(=O)N(c2c(F)c(OC)cc(OC)c2F)Cc2cnc3[nH]c(CN4CCOCC4)cc3c21 [pemigatinib] | 0.966
CCCCCCCCCCCCCCCCO [1-Hexadecanol] + CCN1C(=O)N(c2c(F)c(OC)cc(OC)c2F)Cc2cnc3[nH]c(CN4CCOCC4)cc3c21 [pemigatinib] | 0.997
CCN1/C(=C/C(C)=O)Sc2ccc(OC)cc21 + CCN1C(=O)N(c2c(F)c(OC)cc(OC)c2F)Cc2cnc3[nH]c(CN4CCOCC4)cc3c21 [pemigatinib] | 0.933
